Measured values published in paper PMC4336329 (PLoS ONE, 2015).
Hit rate of the full screen: of about 310,000 compounds, about 14,000 (4.5%) showed an effect of 50% or more. The effect is printed as a negative number. Some of the results follow.

Molecular target: human ether-à-go-go-related gene (hERG) potassium channel (human, UniProt Q12809)
Test: primary screen, population patch clamp on CHO cells stably expressing hERG
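Further: peak tail current of the secondary pulse compared with the same well before compound.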

human ether-à-go-go-related gene (hERG) potassium channel, sequence (Q12809 whole entry, looked up): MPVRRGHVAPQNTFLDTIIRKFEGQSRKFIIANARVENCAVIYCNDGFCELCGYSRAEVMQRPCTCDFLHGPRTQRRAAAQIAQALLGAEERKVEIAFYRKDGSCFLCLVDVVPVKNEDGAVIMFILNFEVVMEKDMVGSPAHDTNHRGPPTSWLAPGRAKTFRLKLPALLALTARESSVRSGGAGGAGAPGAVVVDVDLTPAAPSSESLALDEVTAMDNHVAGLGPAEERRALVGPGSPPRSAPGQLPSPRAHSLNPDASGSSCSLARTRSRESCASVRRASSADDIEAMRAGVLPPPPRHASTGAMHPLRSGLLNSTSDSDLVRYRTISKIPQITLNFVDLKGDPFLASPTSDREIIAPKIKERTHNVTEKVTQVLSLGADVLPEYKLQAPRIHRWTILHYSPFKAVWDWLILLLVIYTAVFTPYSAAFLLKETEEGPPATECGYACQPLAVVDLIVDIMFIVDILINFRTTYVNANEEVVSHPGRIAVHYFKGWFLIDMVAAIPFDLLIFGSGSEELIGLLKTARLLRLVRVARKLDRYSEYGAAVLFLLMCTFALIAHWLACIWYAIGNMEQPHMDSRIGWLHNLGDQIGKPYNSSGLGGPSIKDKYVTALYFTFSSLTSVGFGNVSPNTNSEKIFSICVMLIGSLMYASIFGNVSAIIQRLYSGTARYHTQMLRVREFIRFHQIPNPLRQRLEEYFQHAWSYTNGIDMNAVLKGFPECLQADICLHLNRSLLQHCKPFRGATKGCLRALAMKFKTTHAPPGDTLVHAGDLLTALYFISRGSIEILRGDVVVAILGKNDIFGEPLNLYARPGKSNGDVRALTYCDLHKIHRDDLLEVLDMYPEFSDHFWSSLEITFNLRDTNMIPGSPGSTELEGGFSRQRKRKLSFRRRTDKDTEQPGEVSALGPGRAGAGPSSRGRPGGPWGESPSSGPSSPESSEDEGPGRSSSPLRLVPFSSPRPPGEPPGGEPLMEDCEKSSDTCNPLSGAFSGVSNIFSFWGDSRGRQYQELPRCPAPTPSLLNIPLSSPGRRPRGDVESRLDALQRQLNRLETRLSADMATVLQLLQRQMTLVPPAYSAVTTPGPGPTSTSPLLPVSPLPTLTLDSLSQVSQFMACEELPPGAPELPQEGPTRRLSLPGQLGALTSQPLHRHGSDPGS

| SMILES | hERG current change (%, negative = inhibition) at 10uM [%] |
| --- | --- |
| Cc1nn(C(C)C(=O)NCCCc2ccccc2)c(=O)c2nn(-c3ccccc3)c(C)c12 (stereo not shown) | -20 |
| CC(=O)CCC(=O)OCC(=O)Nc1ccc(SC(F)F)cc1 | -14 |
| CN1C2CCC1CC(OC(=O)c1ccc([N+](=O)[O-])cc1)C2 (stereo not shown) | -67.9 |
| CCCn1c(SCC(=O)c2ccc(CC)cc2)n[nH]c1=O | 16.4 |
| Cc1cc(C)nc(N/N=C/c2ccc(Cl)cc2)n1 | -25.9 |
| O=c1[nH]c(O)c(N=Nc2ccc([N+](=O)[O-])cc2)c(=O)[nH]1 | 12.1 |
| Cc1noc(C)c1S(=O)(=O)N1Cc2ccccc2CC1C(=O)N(C)C (stereo not shown) | -8.91 |
| O=C(Nc1cc(S(=O)(=O)N2CCCC2)ccc1Cl)C1=COCCO1 | -4.81 |
| O=c1c2ccccc2nc(/C=C/c2ccc(O)cc2)n1-c1ccccc1O | 8.48 |
| Cn1c(CNc2ccc(F)cc2)nc2ccccc21 | -2.66 |
| CCOc1ccc(C(O)(CCC(C)C)C(CN2CCOCC2)c2ccccc2)cc1.Cl (stereo not shown) | 13.3 |
| CC(O)C(O)C(O)C(O)C1NCCS1 (stereo not shown) | 6.81 |
| O=C(CCN1C(=O)/C(=C/c2cccs2)SC1=S)Nc1ccccn1 | 22.1 |
| Cc1cc(C)c(C#N)c(Sc2ccccc2N)n1 | 17.8 |
| O=C1C2C3C=CC(C4CC34)C2C(=O)N1c1cccc2ccccc12 (stereo not shown) | -0.113 |
| Cc1cccc(NC(=O)c2ccc3c(c2)OCCO3)c1C | 4.75 |
| COc1ccc(C2=NN(CCC(=O)NC3CCC(C)CC3)C(=O)CC2)cc1 (stereo not shown) | 3.99 |
| Cc1nc(C)c(C(=O)Nc2ccccc2-c2ccccc2)o1 | -1.46 |
| CCN(CC)c1ccc(N=Cc2c(O)n(-c3ccccc3)c(=O)[nH]c2=O)cc1 | -35.3 |
| COC(=O)C1=C[C@@H](C(=O)OC)C2C3=C(C(=O)C24CCCCC4)[C@H](C)n2c(=O)n(-c4ccccc4)c(=O)n2[C@@H]3C1 (stereo partly shown) | -0.241 |
| O=C1OCCN1C(=O)[C@H]1[C@H](c2ccc(Cl)cc2)C(c2cccc(Cl)c2)=NN1c1ccccc1 | 14 |
| NC(=O)COC(=O)CNC(=O)c1ccc(Cl)cc1 | 12.6 |
| CC(C)OCC(O)CN (stereo not shown) | -6.51 |
| COc1ccc(-c2n[nH]c(=S)nc2-c2ccc(OC)cc2)cc1 | 29.2 |
| C=C(C)COc1ccc(-c2[nH]ncc2-c2ccccc2OC)c(O)c1 | 5.19 |
